# Laboratory results reported in article PMC4336329 (PLoS ONE, 2015).
# Screen size: about 310,000 compounds; about 2,200 (0.71%) showed an effect of 50% or more. Effects have a minus sign here. The list shows a part of the results.
# Target: human ether-à-go-go-related gene (hERG) potassium channel (human, UniProt Q12809)
# Experiment: primary screen, population patch clamp on CHO cells stably expressing hERG
# human ether-à-go-go-related gene (hERG) potassium channel, sequence (Q12809 whole entry, looked up): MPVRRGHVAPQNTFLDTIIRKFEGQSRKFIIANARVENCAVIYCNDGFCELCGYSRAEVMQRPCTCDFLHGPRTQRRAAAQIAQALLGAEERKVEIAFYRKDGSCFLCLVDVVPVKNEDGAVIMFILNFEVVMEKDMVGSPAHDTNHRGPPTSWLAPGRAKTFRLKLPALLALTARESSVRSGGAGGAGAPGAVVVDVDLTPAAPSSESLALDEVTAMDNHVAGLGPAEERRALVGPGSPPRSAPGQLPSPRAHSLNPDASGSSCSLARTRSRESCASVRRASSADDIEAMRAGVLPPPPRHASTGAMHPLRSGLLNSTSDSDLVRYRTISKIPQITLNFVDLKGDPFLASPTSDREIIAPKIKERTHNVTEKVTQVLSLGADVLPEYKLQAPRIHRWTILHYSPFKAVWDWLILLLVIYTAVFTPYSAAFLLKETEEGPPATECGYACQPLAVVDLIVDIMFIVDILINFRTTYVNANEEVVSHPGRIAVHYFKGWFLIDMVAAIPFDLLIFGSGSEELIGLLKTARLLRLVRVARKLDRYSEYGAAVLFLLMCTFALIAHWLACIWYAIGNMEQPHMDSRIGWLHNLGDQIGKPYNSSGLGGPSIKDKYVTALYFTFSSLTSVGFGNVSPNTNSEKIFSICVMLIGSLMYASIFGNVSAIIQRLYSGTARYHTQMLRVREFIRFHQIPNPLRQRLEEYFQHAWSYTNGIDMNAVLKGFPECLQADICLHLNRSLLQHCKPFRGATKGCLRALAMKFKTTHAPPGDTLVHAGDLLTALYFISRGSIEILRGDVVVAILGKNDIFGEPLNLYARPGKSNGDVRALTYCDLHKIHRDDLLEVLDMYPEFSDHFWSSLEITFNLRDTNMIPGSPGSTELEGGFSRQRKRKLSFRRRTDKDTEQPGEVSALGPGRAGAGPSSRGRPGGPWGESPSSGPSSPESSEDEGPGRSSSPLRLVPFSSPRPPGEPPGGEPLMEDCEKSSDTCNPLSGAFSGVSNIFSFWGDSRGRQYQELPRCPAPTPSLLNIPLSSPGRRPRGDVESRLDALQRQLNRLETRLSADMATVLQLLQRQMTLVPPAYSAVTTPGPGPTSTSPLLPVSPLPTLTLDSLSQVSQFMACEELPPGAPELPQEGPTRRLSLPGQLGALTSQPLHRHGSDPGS
row,SMILES,"hERG current change (%, negative = inhibition) at 1uM"
1,c1ccc2c(c1)CCN(c1ncnc3c1[nH]c1ccccc13)C2,18.4%
2,CCN(CC(=O)NCc1ccc(F)cc1)C(=O)CN1CCN(c2ccccc2OC)CC1,-44.4%
3,O=C(CSc1nc2ccccc2nc1N1CCCC1)Nc1ccc(Cl)cc1,1.8%
4,Cc1c(OCC(=O)NCCCn2ccnc2)ccc2c3c(c(=O)oc12)CCCC3,2.79%
5,CCn1c(SCC(=O)c2ccccc2)nc2ccccc2c1=O,10%
6,CC1CCCN(Cc2c(O)ccc3c2O/C(=C\c2ccco2)C3=O)C1 (stereo not shown),6.46%
7,CCCCC[n+]1ccn(C2=C([O-])c3ccccc3C(=O)/C2=N\S(=O)(=O)c2ccc(Br)cc2)c1,3.66%
8,O=C(Nc1ccc(Cl)cc1)OCCn1nnnc1C(c1ccccc1Cl)N1CCOCC1 (stereo not shown),4.94%
9,COc1ccc(CCNC(=O)COC(=O)COc2ccc(C#N)cc2)cc1,5.38%
10,CCN(CC(=O)NCc1ccc(Cl)cc1)C(=O)C1CCN(S(=O)(=O)c2ccc(OC)c(OC)c2)CC1,7.84%
11,Cc1c(NC(=O)CSc2n[nH]c(-c3ccccc3)n2)c(=O)n(-c2ccccc2)n1C,6.56%
12,COc1ccc2cc3cc(C(=O)N4CCN(Cc5ccc6c(c5)OCO6)CC4)oc3nc2c1,0.263%
13,O=c1[nH]c(=O)n(CCc2ccc(F)cc2)c(O)c1C=NCCCn1ccnc1,8.39%
14,CC(=O)Nc1ccccc1NS(=O)(=O)c1cccc([N+](=O)[O-])c1,13.8%
15,Cc1ccc(-n2ncc(C(=O)NC3CC3)c2C2CCN(C(=O)OC(C)(C)C)CC2)cc1,7.14%
16,CCOc1ccccc1N(CC(=O)NC(C)(C)C)C(=O)Cn1nnc(-c2ccc(C)o2)n1,-4.08%
17,CCOC(=O)CN1C(=O)N[C@@H](CCc2ccccc2)[C@@H](C(=O)OC)[C@H]1C,12.6%
18,CN(C)C(=O)c1ccc(-c2n[nH]c(=O)c3ccccc23)cc1,8.14%
19,CCCCC(NC(=O)c1ccccc1)C(=O)OCC(=O)N1c2ccccc2Sc2ccccc21 (stereo not shown),15.8%
20,O=C([O-])c1cc(-c2cccnc2)nc2ccc(Br)cc12.[K+],15.7%
21,O=C(O)CCC(=O)Nc1ccc(Br)cc1C(=O)c1ccc(Cl)cc1,8.95%
22,CC(Sc1ccccn1)C(=O)NC1CCCC1 (stereo not shown),5.57%

row,SMILES,"hERG current change (%, negative = inhibition) at 1uM"
1,O=C1CC(=O)N(c2ccccc2)C(=O)N1c1ccccc1,8.39%
2,Cn1c(O)c(C=Nc2ccc(Br)cc2)c(=O)n(C)c1=O,12.4%
3,O=C(CCNS(=O)(=O)c1ccccc1)NNC(=O)C1COc2ccccc2O1 (stereo not shown),17.8%
4,CC(NC(=O)Cn1cc(C(=O)C2CC2)c2ccccc21)c1ccccc1 (stereo not shown),8.23%
5,Cc1nn(CC(=O)Nc2ccc(C(=O)N3CCCC3)cc2)c(=O)c2ccccc12,3.17%
6,O=C(CN1C(=O)NC2(CCCc3ccccc32)C1=O)NCc1ccc(Cl)cc1Cl (stereo not shown),-3.31%
7,O=C(CN1C(=O)S/C(=C\C=C\c2ccccc2)C1=O)Nc1ccc(C(=O)O)cc1,14.1%
8,CCOc1ccc(CNC(=O)C2CCCN(c3nnc(C)c4c(C)n(-c5ccccc5)nc34)C2)cc1 (stereo not shown),8.87%
9,CC(C)CN1CCC(=O)N([C@H](COc2ccccc2)c2ccccc2)CC1,-64.3%
10,C=CCn1c(=O)c2ccccc2n2c(SCC(=O)NCc3cccs3)nnc12,8.58%
11,COCc1ccc(C(=O)N(C)C2CCCN(Cc3ccccc3F)C2)o1 (stereo not shown),-1.22%
12,COc1ccc2ccccc2c1CN1CCN(Cc2ccccc2)CC1,5.42%
13,Cc1ccc(NC(=O)C2CCN(S(C)(=O)=O)CC2)cc1Cl,15%
14,COc1cc(=O)oc(-c2ccccc2)c1C(C)=O,15.7%
15,COc1cnc(-c2ccccc2)nc1OC,20.2%
16,CCCCOc1c(Cl)cc(CNC(C)(C)CO)cc1OCC,10.3%
17,CCC(C)(C)n1nnnc1C(c1cccc(C#N)c1)N1CCN(c2cc(C)ccc2C)CC1 (stereo not shown),12.9%
18,CC(=O)N1CCN(C(=O)c2ccc(NS(=O)(=O)c3ccc4c(c3)OCCO4)cc2)CC1,13%
19,Cn1c(N)c(C(=O)COC(=O)CNS(=O)(=O)c2ccc(Cl)c(Cl)c2)c(=O)n(C)c1=O,1.58%
20,Cc1ccc(-n2nc3c(c2NC(=O)c2ccc4c(c2)OCO4)CS(=O)(=O)C3)c(C)c1,9.43%
21,O=C(COc1ccc(S(=O)(=O)N2CCCC2)cc1)NCc1ccco1,12.6%
